The campaign covered roughly 50,000 compounds. About 800 (1.6%) showed an effect of 50% or more. The list shows a part of the results.

The assay has as its target Bcl-2-like protein 10 (Homo sapiens) (UniProt Q9HD36). Briefly: TR3 peptide-Bcl-B binding displacers, biochemical primary FP assay, phenotype converters (AID 1240).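 Further: 0% = Bcl-B with tracer peptide and DMSO and 100% = tracer peptide lacking Bcl-B.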 The note with it: GST-Bcl-B / FITC-TR3 peptide fluorescence polarization; stronger effect = higher value; compound at 3.75 mg/L. For orientation: In fluorescence polarisation assays a small probe gives low polarisation when free and higher when bound to something large.
UniProt Q9HD36, sequence (Q9HD36 whole entry, looked up): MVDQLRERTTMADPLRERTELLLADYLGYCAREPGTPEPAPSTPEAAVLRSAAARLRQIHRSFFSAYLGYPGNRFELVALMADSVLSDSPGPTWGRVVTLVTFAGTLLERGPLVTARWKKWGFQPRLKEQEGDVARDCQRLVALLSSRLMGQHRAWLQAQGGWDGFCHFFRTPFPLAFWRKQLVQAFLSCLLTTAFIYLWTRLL
`COc1ccccc1NC(=O)C1=C(C)NC(=O)NC1c1ccccc1Br` (configuration not stated): the displacement worked out at 10.1%.

Take `O=S(=O)(/N=C/c1ccccc1O)c1cccs1`: the displacement was 19.9%. As to `CC(=O)Nc1ccc(S(=O)(=O)NNC(=O)c2cccc(Cl)c2)cc1`, the displacement was -8.5%. To `Cc1ccc(-c2nc3ccccc3o2)cc1NC(=S)NC(=O)c1ccco1` belongs 8.7%; to `CCCC(C)NS(=O)(=O)c1ccc(NC(C)=O)cc1` (configuration not stated), 12.7%; to `O=C1NC(=O)N(c2cccc(F)c2)C(=O)/C1=C/c1ccc(N2CCOCC2)o1`, 17.7%. To `CCOC(=O)C1(P(=O)(c2ccccc2)c2ccccc2)CC1` belongs 19.1%. To `CCN(CC)S(=O)(=O)c1cc(C(=O)Nc2cccc(C(=O)O)c2)ccc1C` belongs -3.5%; to `Cc1ccc(C)c(OCCN2CCCC2)c1`, 6.9%. For `CN1C(=O)C2(c3ccccc31)N1CC3(C)CN2CC(C)(C1)C3=O` (configuration not stated), the displacement is -12.9%. To `CC(C)OC(=O)c1c(-c2ccc(Cl)cc2Cl)csc1NC(=O)CCC(=O)O` belongs -1.7%; to `O=C1c2cccc3cccc(c23)C(=O)N1c1cccnc1`, 0.6%; to `CC(C)OC(=O)c1c(NC(=O)c2cccnc2)sc2c1CCCCC2`, -1.2%. To `O=C1CCC(C(=O)Nc2ccccc2)N1` (configuration not stated) belongs 10%. To `COc1ccc(CNc2cccc(C)c2)cc1Br` belongs 4.3%; to `COc1ccc(C2Nc3ccccc3C(=O)N2Cc2ccco2)cc1CSc1ccccn1` (configuration not stated), 12.7%; to `C#CCOc1c(Br)cc(/C=C2\C(=O)NC(=O)N(c3ccc(Cl)cc3)C2=O)cc1OC`, -0.6%. Turning to `CCCc1cc(C(=O)OC)c(NC(=O)CCC(=O)O)s1`, the displacement is -0.4%. With `O=c1c2ccccc2nc(/C=C/c2c[nH]c3ccccc23)n1-c1ccc([N+](=O)[O-])cc1`, the displacement was -62.9%. To `c1ccc(CN2CCC(N3CCN(Cc4ccncc4)CC3)CC2)cc1` belongs -1.9%.

On to `O=C1CC(Nc2ccc(F)cc2)C(=O)N1c1ccccc1C(F)(F)F` (configuration not stated), for which the displacement was determined as 1.1%. In the case of `O=C(/C=C/c1ccc2c(c1)OCO2)Nc1ccc(F)cc1`, the displacement came to 11.7%. Take `COc1ccc(C2C(C(C)=O)=C(Nc3ccccc3)CC(C)(O)C2C(C)=O)cc1OC` (configuration not stated): the displacement stood at 8.4%. For `CCOc1ccc(C2Nc3ccccc3-c3nnc(SC)nc3O2)cc1` (configuration not stated), the displacement was determined as 6%.

Take `O=C1SC(Nc2ccc(Cl)cc2)C(=O)N1c1ccccc1` (configuration not stated): the displacement came to 2.5%. With `O=C(NNS(=O)(=O)c1ccc(Br)cc1)c1ccncc1`, the displacement was -11.3%. To `Cc1nc([N+](=O)[O-])cn1-c1cccc(O)c1` belongs 3%; to `CSc1ccccc1NC(=O)/C=C/C(=O)O`, 9.4%. To `CCCc1nc(-c2cc(OC)c(OC)c(OC)c2)no1` belongs 13.2%. As to `COc1cc(/C=C(/C#N)C(=O)Nc2cccc(Br)c2)cc([N+](=O)[O-])c1O`, the displacement came to 28%. To `COc1ccc(NC(=O)c2cc3nc(-c4ccccc4)cc(-c4ccccc4)n3n2)c(OC)c1` belongs 10%.

Consider `CCc1nc(-c2cc(OC)c(OC)c(OC)c2)no1`, for which the displacement was -8.9%. To `Cc1ccc(-c2nc3n(n2)C(=O)CCS3)cc1` belongs 9.8%; to `COc1ccccc1/C=C1\SC(=S)N(c2c(C)n(C)n(-c3ccccc3)c2=O)C1=O`, 1.2%; to `COc1ccc(C2CC(=O)C3=C(C2)Nc2ccccc2NC3c2cc3c(cc2Cl)OCO3)cc1` (configuration not stated), 12.3%. Turning to `COc1ccc(CCNC(=O)/C=C/c2cc(OC)ccc2OC)cc1`, the displacement was -0.6%. In the case of `COc1ccc([N+](=O)[O-])cc1NCc1ccc(OC)c(OC)c1OC`, the displacement came to 4.2%. With `COc1ccccc1N1C(=O)c2cccc3c(Cl)ccc(c23)C1=O`, the displacement came out at 22.2%. On to `N#CCCS(=O)(=O)Oc1ccccc1`, for which the displacement is -0.2%.

With `O=C1c2ccccc2C(O)(c2ncc[nH]2)N1c1cccc(F)c1` (configuration not stated), the displacement was -4.5%. To `Cc1c(Cl)cccc1NC(=O)C1CC(=O)N(c2ccccc2)C1` (configuration not stated) belongs -5.8%; to `COc1ccc(/C=C\C(=O)C2C(=O)c3ccccc3C2=O)cc1`, 122%; to `Cc1ccc(-c2nnc(NC(=O)c3cccs3)s2)cc1`, 2.6%. In the case of `CN(C)c1ccc(C(=O)Nc2ccc(S(N)(=O)=O)cc2)cc1`, the displacement is 16.2%.

`COC(=O)C1=C(C)N(C)C(C)=C(C(=O)OC)C1c1ccccc1OC`: the displacement was -14.9%. To `c1ccc(-c2[nH]nc(-c3cccnc3)c2-c2nc3ccccc3[nH]2)cc1` belongs 14.7%; to `O=C(Nc1ccc(Cc2ccncc2)cc1)C12CC3CC(CC(C3)C1)C2`, -1.6%. With `COc1ccc(OC)c(/C=N/NC(=O)c2cc[n+](Cc3ccccc3)cc2)c1`, the displacement was 8.7%.

Take `CCCCOC(=O)C1=C(C)NC2=C(C(=O)CCC2)C1c1cc2c(cc1Br)OCO2` (configuration not stated): the displacement was 1.3%.

As for `COCCNC(=O)/C(=C\C=C\c1ccccc1)NC(=O)c1ccc(C)cc1`, the displacement came to 8.5%. For the molecule `Cc1oc(-c2ccccc2)cc1C(=O)Nc1ccc(CC(=O)O)cc1`, the displacement was -8.7%. For `CCN(CC)CCOC(=O)c1ccc(NC(=O)c2ccc(OC)c(OC)c2)cc1`, the displacement is -7.7%. For the molecule `CC(C)CNC(=O)c1cccc(NC(=O)c2ccc(F)cc2)c1`, the displacement amounted to 7.7%.

Take `COc1ccc(CN2CCN(C(=O)c3ccccc3)CC2)cc1Br`: the displacement is -6.4%.

As for `O=C(C1CC1c1ccccc1)N1CCN(C(c2ccccc2)c2ccccc2)CC1` (configuration not stated), the displacement came out at 12.3%. Consider `CCOC(=O)C1=C(C)N=c2s/c(=C\c3ccccc3)c(=O)n2C1c1ccc(Cl)cc1` (configuration not stated), for which the displacement amounted to 3.8%.

Take `CCOC(=O)C1=C(C)NC(C)=C(C(=O)OCC)C1c1ccc(F)cc1`: the displacement was 0%. Regarding `O=C(NCC1CCCO1)/C(=C/c1cccc(Oc2ccccc2)c1)NC(=O)c1ccccc1` (configuration not stated), the displacement stood at 11.3%. To `O=C(N=NC(=O)c1ccco1)c1ccc2c(O)n(N3C(=O)c4ccccc4C3=O)c(O)c2c1` belongs 13.5%; to `CC1=CC(C)(C)Nc2ccc(OC(=O)c3sc4cc([N+](=O)[O-])ccc4c3Cl)cc21`, -8.2%; to `O=[N+]([O-])c1ccc(N2CCN(S(=O)(=O)c3ccccc3)CC2)cc1NCCOc1ccccc1`, 12.7%. Regarding `CCCCOc1cccc(C(=O)Nc2ccc(C)cc2[N+](=O)[O-])c1`, the displacement worked out at 4.8%.

In the case of `Cc1cccc(C(=O)Nc2ccc(NC(=O)c3ccccc3)c(C)c2)c1`, the displacement is -9%.

For the molecule `COc1c(Cl)cc(C(=O)Nc2cccc(C(F)(F)F)c2)cc1Cl`, the displacement is 3%. To `O=C(Nc1nc2ccc(Cl)cc2s1)C(c1ccccc1)c1ccccc1` belongs 4.3%; to `O=C(Nc1cccc2ccccc12)c1cnn2c1NC(c1ccc3c(c1)OCO3)CC2C(F)(F)F` (configuration not stated), 3.9%; to `NC(=O)C(F)(Cl)c1c(F)c(F)c(F)c(-c2ccccc2)c1-c1ccccc1` (configuration not stated), 17.7%.

On to `CCOC(=O)c1c(C)n(C)c2cc(Br)c(C(=O)OC)cc12`, for which the displacement was 13.8%.

Take `Cc1ccc2oc(-c3ccc(N=Cc4cccc(C)c4O)cc3)nc2c1`: the displacement is 16.8%.

Turning to `Cc1ccc(NC(=O)/C=C\C(=O)O)cc1C`, the displacement turned out to be 13.2%. To `C/C(=N\N=C1\NC(=O)C(CC(=O)Nc2ccc(Cl)cc2)S1)C(C)(C)C` (configuration not stated) belongs 7.8%. To `COc1ccc(Cl)cc1C(=O)Nc1cccc2nsnc12` belongs 12.8%. To `CCOc1ccc(C(=O)Nc2nc3ccc([N+](=O)[O-])cc3s2)cc1` belongs -18.5%; to `CN(C)c1ccc(C2C=C(Nc3ccccc3)C(=O)N2c2ccccc2)cc1` (configuration not stated), -24.8%. In the case of `O=C1c2ccccc2C(=O)c2c1cccc2N(Cc1ccccc1)C(=O)C(F)(F)F`, the displacement amounted to 8.8%. To `COc1cc(/C=N/O)ccc1Oc1ccc([N+](=O)[O-])cn1` belongs 9.7%.

Turning to `COc1cc(OC)cc(C(=O)Nc2c(C)ccc3nsnc23)c1`, the displacement worked out at 2%. To `CC(C)(NO)/C(=N/O)c1ccc(Br)cc1` belongs 9.1%; to `Cc1cccc(NC(=O)CSc2nc3ccc(C)cc3[nH]2)c1`, 18.1%; to `CC(=O)NS(=O)(=O)c1ccc(NC(=O)c2ccc([N+](=O)[O-])cc2Cl)cc1`, -1%. To `Cc1ccc(-c2nc3cc(Cl)cc(Cl)c3o2)cc1NC(=O)Cc1ccccc1` belongs -0.9%. As to `O=C(CCN1C(=O)/C(=C\c2cccs2)SC1=S)Nc1cccc(C(F)(F)F)c1`, the displacement is 2.3%.

As to `Cc1cc(C(=O)NCc2cccnc2)ccc1[N+](=O)[O-]`, the displacement is -12.7%. `O=c1oc2cc(O)c([N+](=O)[O-])cc2cc1-c1csc(-c2cc3ccccc3oc2=O)n1`: the displacement is -10%.

`COC(=O)c1c(C)oc2ccc(OCc3c(F)cccc3Cl)cc12`: the displacement is 91%. To `CCOc1ccc2c3c(c(=O)oc2c1OCC)CCCC3` belongs -6.4%; to `Cc1cccc(C(=O)Nc2cc(C(F)(F)F)cc(C(F)(F)F)c2)c1`, 1.8%. For `CCOC(=O)CSc1nc(C)c(Cl)c(=O)[nH]1`, the displacement is 0.6%. `O=C(Cn1c(O)c(N=NC(=O)C(=O)Nc2ccc([N+](=O)[O-])cc2)c2ccccc21)Nc1ccccc1`: the displacement is -5.7%.

`COc1ccc(CNCc2ccc(Cl)cc2)cc1OC`: the displacement is -10.4%.

In the case of `Cc1ccc(S(=O)(=O)NC(c2ccccc2)c2ccc(Br)cc2)cc1[N+](=O)[O-]` (configuration not stated), the displacement is -9.6%. To `C=C(C)CN1CCN(c2c(Cc3ccccc3)c(C)c(C#N)c3nc4ccccc4n23)CC1` belongs 5.2%; to `CN(C)/C=C\C=C\C(=O)C1C2CC3CC(C2)CC1C3` (configuration not stated), -0.6%. For `C=CCN1C(=O)C(Cc2ccccc2)SC1=Nc1ccc(C(=O)O)cc1` (configuration not stated), the displacement was determined as 0.5%. For the molecule `Cc1ccc(N2C(=O)C(Cl)=C(Nc3ccc(F)cc3)C2=O)c(C)c1`, the displacement amounted to 9.2%. On to `COc1ccc(OC)c(N(CC(=O)NC(C)c2ccccc2)S(C)(=O)=O)c1` (configuration not stated), for which the displacement stood at 11.7%. Take `O=C(Nc1ccc(N2CCOCC2)cc1)c1ccc(-c2ccccc2)cc1`: the displacement came out at 37.6%. To `Cc1ccc(C(=O)Nc2ccc(N3CCOCC3)cc2)cc1` belongs -3%. Take `Cc1ccc(Cl)cc1N(Cc1ccc(C(N)=O)cc1)S(=O)(=O)c1ccccc1`: the displacement came to 9.1%.

On to `COc1ccc(C(=O)NCc2ccccn2)cc1[N+](=O)[O-]`, for which the displacement is 13.5%. To `COc1ccc(NC2CC(=O)N(c3ccccc3)C2=O)cc1` (configuration not stated) belongs -11.4%; to `Cc1n[nH]c(C)c1CCC(=O)N/N=C/c1c(Cl)cccc1Cl`, 6.8%. As for `O=C(c1ccc(Cl)cc1)c1ccccc1C(=O)N1CCOCC1`, the displacement turned out to be 1.4%. On to `O=C(O)COc1ccc(/C=C2\C(=O)NC(=S)N(c3ccc(F)cc3)C2=O)cc1Br`, for which the displacement was -13.9%. To `O=C1NN(c2ccc(F)c(Cl)c2)C(=O)/C1=C\c1ccc(-c2cccc(C(=O)O)c2)o1` belongs 10.8%; to `CCOC(=O)c1sc(NC(=O)CCN2C(=O)c3cccc([N+](=O)[O-])c3C2=O)c(C(=O)OCC)c1C`, 6%. With `CS(=O)(=O)N1CCN(Cc2ccc(Br)cc2)CC1`, the displacement was 1.7%.

For the origin of these results see PubChem BioAssay AID1240 (Sanford-Burnham Center for Chemical Genomics, 2008).
